From publication PMC6123813 (Communications biology, 2018)

B1: EphA2 receptor, wild-type, full-length, tagged at the C-terminus with mTurquoise or eYFP (receptor)
chain: [sequence of about 500 residues omitted]IGGVAVGVVLLLVLAGVGFFIHRRRKNQRARQSPEDVYFSKSEQLKPLKTYVDPHTYEDPNQAVLKFTTEIHPSCVTRQKVIGAGEFGEVYKGMLKTSSGKKEVPVAIKTLKAGYTEKQRVDFLGEAGIMGQFSHHNIIRLEGVISKYKPMMIITEYMENGALDKFLREKDGEFSVLQLVGMLRGIAAGMKYLANMNYVHRDLAARNILVNSNLVCKVSDFGLSRVLEDDPEATYTTSGGKIPIRWTAPEAISYRKFTSASDVWSFGIVMWEVMTYGERPYWELSNHEVMKAINDGFRLPTPMDCPSAIYQLMMQCWQQERARRPKFADIVSILDKLIRAPDSLKTLADFDPRVSIRLPSTSGSEGVPFRTVSEWLESIKMQQYTEHFMAAGYTAIEKVVQMTNDDIKRIGVRLPGHQKRIAYSLLGLKDQVNTVGIPI
B2: EphA2 G131Y mutant, full-length, tagged at the C-terminus with mTurquoise or eYFP (receptor, UniProt P29317 24-976, looked up)
chain: [sequence of about 500 residues with changes omitted]IGGVAVGVVLLLVLAGVGFFIHRRRKNQRARQSPEDVYFSKSEQLKPLKTYVDPHTYEDPNQAVLKFTTEIHPSCVTRQKVIGAGEFGEVYKGMLKTSSGKKEVPVAIKTLKAGYTEKQRVDFLGEAGIMGQFSHHNIIRLEGVISKYKPMMIITEYMENGALDKFLREKDGEFSVLQLVGMLRGIAAGMKYLANMNYVHRDLAARNILVNSNLVCKVSDFGLSRVLEDDPEATYTTSGGKIPIRWTAPEAISYRKFTSASDVWSFGIVMWEVMTYGERPYWELSNHEVMKAINDGFRLPTPMDCPSAIYQLMMQCWQQERARRPKFADIVSILDKLIRAPDSLKTLADFDPRVSIRLPSTSGSEGVPFRTVSEWLESIKMQQYTEHFMAAGYTAIEKVVQMTNDDIKRIGVRLPGHQKRIAYSLLGLKDQVNTVGIPI
B3: EphA2 R103E mutant, full-length, tagged at the C-terminus with mTurquoise or eYFP (receptor, UniProt P29317 24-976, looked up)
chain: [sequence of about 500 residues with changes omitted]IGGVAVGVVLLLVLAGVGFFIHRRRKNQRARQSPEDVYFSKSEQLKPLKTYVDPHTYEDPNQAVLKFTTEIHPSCVTRQKVIGAGEFGEVYKGMLKTSSGKKEVPVAIKTLKAGYTEKQRVDFLGEAGIMGQFSHHNIIRLEGVISKYKPMMIITEYMENGALDKFLREKDGEFSVLQLVGMLRGIAAGMKYLANMNYVHRDLAARNILVNSNLVCKVSDFGLSRVLEDDPEATYTTSGGKIPIRWTAPEAISYRKFTSASDVWSFGIVMWEVMTYGERPYWELSNHEVMKAINDGFRLPTPMDCPSAIYQLMMQCWQQERARRPKFADIVSILDKLIRAPDSLKTLADFDPRVSIRLPSTSGSEGVPFRTVSEWLESIKMQQYTEHFMAAGYTAIEKVVQMTNDDIKRIGVRLPGHQKRIAYSLLGLKDQVNTVGIPI

Tests used:
[1] = molecular target: the molecule itself; assay: FRET or BRET; FSI-FRET between EphA2-mTurq and EphA2-eYFP in the plasma membrane of live HEK293T cells in hypo-osmotic medium; with 5 μg per ml (~50 nM) ephrinA1-Fc; also at donor to acceptor ratios 3:1, 1:1, 1:3
[2] = molecular target: the molecule itself; assay: FRET or BRET; FSI-FRET (two-photon spectral imaging) between EphA2-mTurq and EphA2-eYFP in the plasma membrane of live HEK293T cells in hypo-osmotic medium; no ligand; dimer to monomers, two-dimensional constants in receptors per μm^2

| Protein | stoichiometry N [1] | stoichiometry N [2] |
| --- | --- | --- |
| B1 | > 2 | 2 |
| B2 |  | 2 |
| B3 |  | 2 |
